Source: the supplement of paper PMC10670038
Counter-ions that a name gives are not always drawn. ± gives the standard deviation of the averaged measurements. The full ranking holds about 2,000 compounds; the median of “relative cell viability vs DMSO, compound alone” is about 1.1, and the lowest 2% start at about 0.29. Some of the results follow.

Test system: TE10
Test: relative cell viability vs DMSO, compound alone (fraction); TE10 is an esophageal squamous carcinoma line; higher = less cytotoxic
Settings: 2 µM; 48 h
Method: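 TE10 ESCC cells (1,000/well, 384-well plates) were treated with Selleck bioactive library compounds at 2 uM alone for 48 h. Viability was read by CellTiter-Glo and expressed relative to DMSO wells. Two technical replicates (A, B).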

| Compound | relative cell viability |
| --- | --- |
| CCc1oc2ccccc2c1C(=O)c1cc(Br)c(O)c(Br)c1 [Benzbromarone] | 1.11 ± 0.08 |
| CC/C(=C(\c1ccccc1)c1ccc(OCCN(C)C)cc1)c1ccccc1 [Tamoxifen Citrate] | 1.1 ± 0.033 |
| Cn1cc(-c2ccc(S(=O)(=O)n3ccc(/C=C/C(=O)Nc4ccccc4N)c3)cc2)cn1 | 0.838 ± 0.03 |
| CN(C)CCCCC(=O)Nc1ccc(NC(=S)NC(=O)c2ccc(C(C)(C)C)cc2)cc1 [Tenovin-6] | 0.601 ± 0.049 |
| C=C(c1ccc(C(=O)O)cc1)c1cc2c(cc1C)C(C)(C)CCC2(C)C [Bexarotene] | 1.178 ± 0.0021 |
| CC[N+](CC)(CC)CCOc1cccc(OCC[N+](CC)(CC)CC)c1OCC[N+](CC)(CC)CC [Gallamine Triethiodide] | 1.14 ± 0.035 |
| O=C(O)c1cc(I)ccc1NC(=O)[C@H](Cc1ccccc1)NCc1ccccc1 | 1.07 ± 0.055 |
| O=c1c(O)c(-c2ccc(O)c(O)c2)oc2cc(O)cc(O)c12 [Quercetin Dihydrate] | 1.07 ± 0.034 |
| O=c1c(O)c(-c2ccc(O)c(O)c2)oc2cc(O)cc(O)c12 [Quercetin] | 1.12 ± 0.049 |
| Cc1cnc(C(=O)O)c[n+]1[O-] [Acipimox] | 0.954 ± 0.057 |
| O=C(Nc1ccc([N+](=O)[O-])cc1O)Nc1ccccc1Br | 0.922 ± 0.041 |
| O=C(c1cncc(Br)c1)N1CCC(N2CCCC2)CC1 | 1.132 ± 0.01 |
| COc1ccc(CN2CCN(C(c3ccc(F)cc3)c3ccc(F)cc3)CC2)c(OC)c1OC [Lomerizine HCl] | 1.01 ± 0.051 |
| CC(C)Cc1ccc(C(C)C(=O)O)cc1 (centres undefined) [Ibuprofen] | 1.15 ± 0.068 |
| CCN1CCN(Cc2ccc(Nc3ncc(F)c(-c4cc(F)c5nc(C)n(C(C)C)c5c4)n3)nc2)CC1 | 1.15 ± 0.086 |
| COCCc1ccc(OCC(O)CNC(C)C)cc1 (centres undefined) [Metoprolol Tartrate] | 1.12 ± 0.015 |
| CN1CCC(NC(=O)c2cc(-c3c(O)cc(O)cc3Oc3ccc([N+](=O)[O-])cc3)on2)CC1 | 0.605 ± 0.008 |
| Cc1cc(-c2ncc(CC(=O)Nc3ccc(-c4cnccn4)cn3)cc2C)ccn1 | 0.913 ± 0.045 |
| Cc1cnc(C(=O)NCCc2ccc(S(=O)(=O)NC(=O)NC3CCCCC3)cc2)cn1 [Glipizide] | 1.1 ± 0.024 |
| COC(=O)CC(NC(=O)C(C)NC(=O)C(NC(=O)OCc1ccccc1)C(C)C)C(=O)CF (centres undefined) | 1.129 ± 0.0097 |
| CCN1C(=CC(C)=O)Sc2ccc(OC)cc21 | 1.12 ± 0.015 |
| O=C1[C@H](CC[C@H](O)c2ccc(F)cc2)[C@@H](c2ccc(O)cc2)N1c1ccc(F)cc1 [Ezetimibe] | 1.05 ± 0.0093 |
| Nc1ncnc2c1C(=O)N(c1ccc([C@H]3CC[C@H](CC(=O)O)CC3)cc1)CCO2 | 1.14 ± 0.09 |
| CCN(CC)CCOc1ccc(C(=C(Cl)c2ccccc2)c2ccccc2)cc1 [Clomifene citrate] | 1.13 ± 0.051 |
| COc1ccc2cc(-c3nc(-c4ccc([S+](C)[O-])cc4)[nH]c3-c3ccncc3)ccc2c1 (centres undefined) [Tie2 kinase inhibitor] | 1.07 ± 0.013 |
| CCCCCOC(=O)Nc1nc(=O)n([C@@H]2O[C@H](C)[C@@H](O)[C@H]2O)cc1F [Capecitabine] | 1.13 ± 0.014 |
| CCCCC(=O)N(Cc1ccc(-c2ccccc2-c2nn[nH]n2)cc1)C(C(=O)O)C(C)C.CCOC(=O)C(C)CC(Cc1ccc(-c2ccccc2)cc1)NC(=O)CCC(=O)O (centres undefined) | 1.05 ± 0.051 |

| Compound | relative cell viability |
| --- | --- |
| CCCCNc1ccc(C(=O)OCCN(C)C)cc1 [Tetracaine HCl] | 1.14 ± 0.024 |
| COc1ncc(-c2ccc3nccc(-c4ccnnc4)c3c2)cc1NS(=O)(=O)c1ccc(F)cc1F | 0.514 ± 0.019 |
| COc1cc2ncnc(Oc3ccc(CC(=O)Nc4cnn(C(C)C)c4)cc3)c2cc1OC | 1.11 ± 0.017 |
| CN1CCC(=C2c3ccccc3CCc3sccc32)CC1 [Pizotifen Malate] | 1.05 ± 0.028 |
| CNCc1cc(-c2ccccc2F)n(S(=O)(=O)c2cccnc2)c1 | 1.15 ± 0.06 |
| Cc1ccccc1C(OCCN(C)C)c1ccccc1 (centres undefined) [Orphenadrine Citrate] | 1.051 ± 0.006 |
| Cc1nn(C)c2c1C(c1ccc(C(F)(F)F)cc1)C(C#N)=C(N)O2 (centres undefined) | 0.91196 ± 0.00056 |
| O=C1CCc2ccc(OCCCCN3CCN(c4cccc(Cl)c4Cl)CC3)cc2N1 [Aripiprazole] | 1.07 ± 0.035 |
| COc1c2ccoc2cc2oc(=O)ccc12 [Bergapten] | 1.0751 ± 0.00059 |
| CCCCCCCCCCCC1=C(O)C(=O)C=C(O)C1=O [Embelin] | 0.947 ± 0.17 |
| Oc1cc(O)c(Cl)cn1 [Gimeracil] | 0.991 ± 0.088 |
| O=C1Cc2c([nH]c3ccc(Br)cc23)-c2ncccc2N1 [1-Azakenpaullone] | 1.27 ± 0.018 |
| COC(=O)C1=C(C)NC(C)=C(C(=O)OCC(C)C)C1c1ccccc1[N+](=O)[O-] (centres undefined) [Nisoldipine] | 0.99 ± 0.056 |
| CC1(C)CNc2cc(NC(=O)c3cccnc3NCc3ccncc3)ccc21 [Motesanib Diphosphate (AMG-706)] | 1.2 ± 0.025 |
| Cn1cc(-c2[nH]c3cc(NC(=O)[C@H](N)C4CCCCC4)cc4c3c2C=NNC4=O)cn1 | 1.05 ± 0.075 |
| CC[C@@H]1/C=C(\C)C[C@H](C)C[C@H](OC)[C@H]2O[C@@](O)(C(=O)C(=O)N3CCCC[C@H]3C(=O)O[C@H](/C(C)=C/[C@@H]3CC[C@@H](O)[C@H](OC)C3)[C@H](C)[C@@H](O)CC1=O)[C@H](C)C[C@@H]2OC [Ascomycin (FK520)] | 1.15 ± 0.13 |
| OC[C@H]1O[C@@H](c2ccc(Cl)c(Cc3ccc(O[C@H]4CCOC4)cc3)c2)[C@H](O)[C@@H](O)[C@@H]1O | 1.12 ± 0.012 |
| Cc1nc(C#Cc2ccnc(Cl)c2)c(C)n1-c1ccc(OC(F)(F)F)cc1 | 1.2 ± 0.07 |
| CN(C)c1cccc(-c2c3c(=O)n(-c4ccccc4Cl)[nH]c3cc(=O)n2C)c1 | 0.959 ± 0.036 |
| COC(=O)C1=C(C)NC(C)=C(C(=O)OCCN(C)Cc2ccccc2)C1c1cccc([N+](=O)[O-])c1 (centres undefined) [Nicardipine HCl] | 1.05 ± 0.056 |
| COCCOc1ccc2c(c1)ncn2-c1ccc2cccc(N3CCC(N)CC3)c2n1 | 0.876 ± 0.012 |
| Cc1cc(Nc2cc(N3CCN(C)CC3)nc(/C=C/c3ccccc3)n2)n[nH]1 [ENMD-2076 L-(+)-Tartaric acid] | 0.808 ± 0.069 |
| Cc1cc(Nc2cc(N3CCN(C)CC3)nc(/C=C/c3ccccc3)n2)n[nH]1 | 0.856 ± 0.03 |
| Cc1cc(-c2ccc(CC(=O)Nc3ccc(-c4cccnc4)cc3)cc2)ccn1 | 1.083 ± 0.0063 |
| COc1ccc(C2CC(c3ccccc3)=NN2c2ccc(S(N)(=O)=O)cc2)cc1 (centres undefined) | 1.09 ± 0.023 |
| CCOc1cc(N)c(Cl)cc1C(=O)NCC1CN(Cc2ccc(F)cc2)CCO1 (centres undefined) [Mosapride Citrate] | 1.01 ± 0.018 |
| COC(=O)[C@H](CCSC)NC(=O)c1ccc(NC[C@@H](N)CS)cc1-c1ccccc1 | 1.06 ± 0.041 |

| Compound | relative cell viability |
| --- | --- |
| Cc1cccc(Nc2ccccc2C(=O)O)c1C [Mefenamic Acid] | 1.139 ± 0.0043 |
| CCC(C)n1ncn(-c2ccc(N3CCN(c4ccc(OCC5COC(Cn6cncn6)(c6ccc(Cl)cc6Cl)O5)cc4)CC3)cc2)c1=O (centres undefined) [Itraconazole] | 1.077 ± 0.0012 |
| C[C@H]1[C@H](OC(=O)CCC(=O)O)O[C@@H]2O[C@@]3(C)CC[C@H]4[C@H](C)CC[C@@H]1[C@@]24OO3 [Artesunate] | 0.964 ± 0.043 |
| CC(NC(=O)Cc1cc(F)cc(F)c1)C(=O)NC1C(=O)N(C)c2ccccc2-c2ccccc21 (centres undefined) | 1.1 ± 0.025 |
| Cc1ccc(-c2c(-c3nn(C)c4ncnc(N5CC[C@H](N6CCCCC6)C5)c34)cnn2C)cc1 | 0.979 ± 0.061 |
| O=C1c2c(O)cc(O)cc2O[C@H](c2cc(O)c(O)c(O)c2)[C@H]1O [Dihydromyricetin] | 0.741 ± 0.029 |
| O=C1OC(CN2CCOCC2)CN1/N=C/c1ccc([N+](=O)[O-])o1 (centres undefined) [Furaltadone HCl] | 1.238 ± 0.0058 |
| CC(C)(C(=O)NCC(F)(F)C(F)(F)F)C(=O)N[C@@H]1C(=O)Nc2ccccc2-c2ccccc21 | 0.867 ± 0.038 |
| Cc1cc(C)c(CNC(=O)c2cc(-c3ccc(N4CCN(C)CC4)nc3)cc3c2c(C)cn3C(C)C)c(=O)[nH]1 | 1.09 ± 0.051 |
| O=C1CCC(N2C(=O)c3ccccc3C2=O)C(=O)N1 (centres undefined) [Thalidomide] | 1.19 ± 0.018 |
| c1cn2cc(-c3ccc4cn[nH]c4c3)nc(Nc3ccc(N4CCOCC4)cc3)c2n1 | 0.7107 ± 0.0043 |
| C=CCn1c(=O)c2cnc(Nc3ccc(N4CCN(C)CC4)cc3)nc2n1-c1cccc(C(C)(C)O)n1 | 0.335 ± 0.015 |
| Clc1ccc(C(Cn2ccnc2)OCc2csc3c(Cl)cccc23)c(Cl)c1 (centres undefined) [Sertaconazole nitrate] | 1.05 ± 0.07 |
| CC1(C)S[C@@H]2[C@H](NC(=O)Cc3ccccc3)C(=O)N2[C@H]1C(=O)O [Penicillin G Sodium] | 1.134 ± 0.0036 |
| CCCCc1nc(Cl)c(CO)n1Cc1ccc(-c2ccccc2-c2nnn[nH]2)cc1 [Losartan Potassium (DuP 753)] | 1.19 ± 0.015 |
| O=C(/C=C/C=C/c1ccc2c(c1)OCO2)N1CCCCC1 [Piperine] | 1.09 ± 0.04 |
| O=C(O)C(S)=Cc1c[nH]c2ccc(F)cc12 | 1.22 ± 0.024 |
| O=c1c2ccccc2nc2n1CCc1c-2[nH]c2ccccc12 [Rutaecarpine] | 1.03 ± 0.095 |
| CCC(=O)OCC(=O)[C@@]1(OC(=O)CC)[C@@H](C)C[C@H]2[C@@H]3CCC4=CC(=O)C=C[C@]4(C)[C@@]3(Cl)[C@@H](O)C[C@@]21C [Beclomethasone dipropionate] | 0.879 ± 0.011 |
| COc1ccccc1N1CCN(CCCNc2cc(=O)n(C)c(=O)n2C)CC1 [Urapidil HCl] | 1.07 ± 0.017 |
| O=C(Nc1cccc(Nc2ncc(Br)c(NCCc3cnc[nH]3)n2)c1)N1CCCC1 | 1.3 ± 0.1 |
| CN(C)CCCn1cc(C2=C(c3c[nH]c4ccccc34)C(=O)NC2=O)c2ccccc21 | 1.13 ± 0.069 |
| COc1nc(N)nc2c1ncn2[C@@H]1O[C@H](CO)[C@@H](O)[C@@H]1O [Nelarabine] | 1.11 ± 0.05 |
| O=C1NC(=O)[C@@H](c2cn3c4c(cccc24)CCC3)[C@@H]1c1c[nH]c2ccccc12 [Tivantinib (ARQ 197)] | 0.8611 ± 0.0068 |
| CCc1cnn2c(NCc3ccc[n+]([O-])c3)cc(N3CCCC[C@H]3CCO)nc12 | 0.5705 ± 0.0054 |
